Data: the supplement of paper PMC11417369
± gives the standard deviation of the averaged measurements. Some of the results follow.

The sequences below were run on PfAP2-I AP2 domain 3 (GST-tagged) (assay: gcPBM binding intensity (ln(normalized median fluorescence intensity)); higher = stronger DNA binding).
How it was run: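 Binding intensity is the highest Masliner-normalised natural-log median intensity over replicate spots in either probe orientation. To obtain it, GST-tagged P. falciparum DNA-binding domains made in E. coli were incubated for 1 h on an Agilent 4 × 180k array of primer-extended double-stranded 36-bp intergenic genomic probes plus negative controls. Detection used Alexa488 anti-GST antibody with scanning at 488 nm.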

Sequence | gcPBM binding intensity (ln)
AGCATTTATGAAAAATGTACACACATCAAATGCTTA [XGTACX_site8749] | 7.7 ± 0.38
TATAAAAATAATATTACACACATGTAAAATGTCGGT [CACACA_site3264] | 7.71 ± 0.49
TGTAGAAATGGGTGCACACACATATATAATATATAT [CACACA_site2507] | 10.3 ± 0.45
AACTCATCTTATAATTGTACATATTTATAAAAAGTA [XGTACX_site6522] | 7.83 ± 0.47
TTAGGGATGCTGAAATGTACACATTTAAATTATATA [XGTACX_site3000] | 7.91 ± 0.26
AAAAAAAAAAAAAAAAAAAAAAAAAAAAAATATATA [GTGCAC_negctrl_site6] | 10.2 ± 0.17
AATGTAAAACTAATATGTACATATCTCTAAAGAAAT [XGTACX_site8429] | 7.78 ± 0.51
ATTGTCTTCCTTCTGGTGCGATGTATAGGTAAAGAT | 8.94 ± 0.19
CGTACTAACATAAAGACACACACCACATATAATAAA [CACACA_site3603] | 7.96 ± 0.53
CCATAAAAAGGTACATGTACAAAAAGCAAAAATATG [XGTACX_site5543] | 8.31 ± 0.69
ATATTTTTCCAACATCGTACATTATGAGTCAAAATT [XGTACX_site993] | 8.08 ± 0.54
CCCATATTATAGGTGTGTACATAAAAGTATATATAA [XGTACX_site3629] | 8.03 ± 0.57
AGAAGAAATATGTAAAAAATTTTATATTCACACACA [GTGCAC_negctrl_site441] | 8.15 ± 0.33
AATTTAATTTTTTCGTGTACTTATATAGGAGGTTTT [XGTACX_site8310] | 7.93 ± 0.66
CAATTAAAGATATGAACACACATGTGAACTTTCTAT [CACACA_site7796] | 7.43 ± 0.68
TTTCTTATCAACCTTTTTTTTTTTTTTTTATTCTTA [TGCATGCA_negctrl_site162] | 7.43 ± 0.73
TTTATATATAATGTTGCATGTCAAATTTGTATATGG [TGCATGCA_site246] | 7.77 ± 0.57
TGTTCTTATACTAATAGTACTTTTAGGTACTATAAA [XGTACX_site2954] | 7.6 ± 0.44
TGTAGACATTAATGTAGTACAATATATATATATATT [XGTACX_site8608] | 7.92 ± 0.43
AAAAAAAAAAAAAAAACACACATACCCATATATTTT [CACACA_site6013] | 8.78 ± 0.54
ATGATATGCAATTTAGTGCATAACAAAATTGGTATA | 10.9 ± 0.49
TTGTGTAAATGTTAAGTGCATTTGGTAAAATATAAA [GTGCAC_site9699] | 9.51 ± 0.11
TTTTTCTTTTTTTGGGGTACAGGGAAATCTATATTT [XGTACX_site7025] | 8.35 ± 0.5

Sequence | gcPBM binding intensity (ln)
TCTTAATTTTTGAAGGTACACACTAATATATTAAAT [CACACA_site1191] | 7.94 ± 0.33
TGTGTATACTTGTGTATACCAAATTAAAGACGCTTT [CACACA_negctrl_site1359] | 7.42 ± 0.67
AAAAAATAAAAAAGGTGGTCATGTCACAAATACTTT [XGTACX_site7454] | 8.03 ± 0.57
TAAAAGTGATATGTTCGTACGTATTTATATGTAATA [XGTACX_site211] | 7.72 ± 0.48
TCTCCATCTTATGAGACATGCACTTTTTATTTAATA [TGCATGCA_site121] | 8.35 ± 0.64
GTATATATATATATATATATATATATATATATATAT [CACACA_negctrl_site609] | 9.12 ± 0.59
ATATATGCATATATATGTACATATATATATATATAT [XGTACX_site7403] | 9.09 ± 0.4
AATAAATAAAAAATTACACACATATATATAAATATA [CACACA_site3434] | 7.58 ± 0.25
TAAATTATAAATTGCACACATATTTTTATATTTATA [CACACA_site2976] | 8.47 ± 0.16
ATATTTTTAGATTCAGAAAAAAGATTCAACTTACTC [CACACA_negctrl_site1357] | 7.52 ± 0.47
TATTTCATATGAAGAAGTACTATTAATAATTTCCTT [XGTACX_site6587] | 7.66 ± 0.38
TTCTTTTTTCGACACACACACACAAGAAGATATATA [CACACA_site7456] | 8.44 ± 0.3
ATATATATATATAATACACACTTATGAAATGTCTAA [CACACA_site5077] | 9.18 ± 0.33
TTAATACATACATTCACACACACTAATTGTATATTT [CACACA_site9362] | 8.06 ± 0.55
ATACGAATAAATTTCGCATGCAGCATATATATCAAT [TGCATGCA_site612] | 7.8 ± 0.62
TGTACAAATATGTTGAAAATAAAATTTCAATATATT [XGTACX_negctrl_site13] | 7.37 ± 0.7
AACGAAAATAAGAAAAGTACAAAAAATACCAAATAA [XGTACX_site6171] | 7.96 ± 0.74
ATATATATATATATATGTACATATATATTGTTGATC [XGTACX_site8893] | 9.54 ± 0.63
ATTTAATTCGTACATACACACGCACATATATATATA [CACACA_site8415] | 9.38 ± 0.11
ACATATTATTCAAGTGCACACTTTATATTTATGATT [CACACA_site3295] | 9.715 ± 0.035
AAAAAAAAACAGAAAACACACAAATTATCTTAGAAT [CACACA_site309] | 7.49 ± 0.73
TACAATAATGATTGTTGTACATTATTGATATTTAAA [XGTACX_site2940] | 7.47 ± 0.23
